According to PubChem BioAssay AID463173 (ICCB-Longwood Screening Facility, Harvard Medical School, 2010):
Screen size: about 52,000 compounds; about 1,700 (3.3%) were called active. Cut-off read from the data, not from the text of the source: active = survival mostly below about 52% (no sharp cut-off); inactive = mostly above about 56%. The list shows a part of the results.

The molecules below were run on Wild type (assay: S. aureus survival, RN4220 and DeltatarO strains – OD600, teichoic acid synthesis inhibitors, primary screen (AID 463173)). Conditions: S. aureus RN4220 wild type/DeltatarO growth, OD600, 18 h, active compounds read low, screened at 18.75 µg/mL (by protocol).
`Cc1cc(C)cc(NC(=O)Cn2cc(C(=O)c3ccccc3)c(=O)c3ccc(C)nc32)c1` was tested, and the survival was inactive: 71%.
In the case of `Cn1c(=O)c2nc(SCC(=O)Nc3ccc(Cl)c(Cl)c3)n(C)c2n(C)c1=O`, the survival is reported as inactive: 76%.
`COC(=O)CN1C(=O)C(O)(CC(=O)c2ccc(F)cc2)c2ccccc21` (stereo not drawn) was tested, and the survival was inactive: 76%.
`CCOC(=O)CSc1nc2ccc(NC(=O)COc3ccccc3C)cc2s1` was tested, and the survival was inactive: 105%.
In the case of `Cc1ccc(-n2c3nc(=O)[nH]c(=O)c-3cc3c(C)nn(-c4ccccc4)c32)c(C)c1`, the survival is reported as inactive: 91%.
For `Cc1ccc(Cl)cc1NC(=O)CCS(=O)(=O)c1ccc2c(c1)n(C)c(=O)c(=O)n2C`, the survival was inactive: 87%.
For `Cc1nn(CC(=O)N2CCCCC2)c(=O)c2cc3occc3n12`, the survival was inactive: 115%.
For `O=C(Nc1ccc(Cl)cc1)c1cc2c(-c3ccccc3)nn(-c3ccccc3)c2s1`, the survival was inactive: 66%.
With `O=C1CSC2(CCCCC2)N1c1ccc(Cl)cc1` the survival was inactive: 102%.
In the case of `CC(C)Cn1cc(NC(=O)NCc2ccccc2Cl)c2ccccc2c1=O`, the survival is reported as inactive: 80%.
`CC(NC(=O)C1CCN(S(=O)(=O)c2ccc3nc4c(c(C(=O)O)c3c2)CCCC4)CC1)c1ccccc1` (stereo not drawn) was tested, and the survival was inactive: 114%.
For `COc1cccc(NC(=O)c2ccc3nc(Cc4ccccc4)oc3c2)c1`, the survival was inactive: 53%.
With `COc1ccc(-c2cc(C(=O)Nc3sc4c(c3C#N)CCCC4)no2)cc1OC` the survival was inactive: 80%.
For `Cc1ccc(NC(=O)CCS(=O)(=O)c2cc(Br)cc3c2N(C(=O)C2CC2)CC3)cc1`, the survival was inactive: 85%.
`O=C(CSc1oc(-c2ccccc2)nc1S(=O)(=O)c1ccccc1)c1ccccc1` was tested, and the survival was inactive: 139%.
In the case of `CC1CCCCN1C(=O)CSc1nc2ccccc2c(=O)[nH]1` (stereo not drawn), the survival is reported as inactive: 102%.
With `CCc1ccc(-n2c(SCc3cccc(F)c3)nc3[nH]ncc3c2=O)cc1` the survival was inactive: 89%.
For `O=c1oc2ccccc2cc1-c1cn2cc(Cc3ccccc3F)sc2n1`, the survival was inactive: 78%.
With `Cc1ccc(Cn2c(SCc3ccc(C(=O)NC4CCCC4)cc3)nc3ccncc32)cc1` the survival was inactive: 90%.
`CCn1c(=O)cc(OCC(=O)Nc2ccc(C)c(F)c2)c2ccccc21` was tested, and the survival was inactive: 76%.
With `Cc1ccc2nc(NCCc3ccccc3)c3nncn3c2c1` the survival was inactive: 82%.
In the case of `Cc1nn(-c2ccccc2)c(OC(=O)C(C)(C)C)c1Sc1ccccc1`, the survival is reported as inactive: 51%.
With `COCCn1c(=N)c(C(=O)NCc2ccco2)cc2c(=O)n3cc(C)ccc3nc21` the survival was inactive: 71%.
For `Cc1ccc(-n2c(-c3ccco3)nc3c(cnn3-c3ccccc3C)c2=O)cc1`, the survival was inactive: 121%.
In the case of `Cc1cccc(-n2c(=O)c3c(c4cc(C)ccc4n3C)n(CC(=O)Nc3ccc(C)cc3C)c2=O)c1`, the survival is reported as inactive: 97%.
For `Nc1cc(N)nc(SCc2ccccc2C(F)(F)F)n1`, the survival was inactive: 115%.
`Cc1ccc(C(=O)Nc2ccc3oc(-c4ccncc4)nc3c2)c(Cl)c1` was tested, and the survival was inactive: 84%.
`Cc1nnc(NC(=O)C(=O)c2cc(C)n(-c3ccc(C)c(C)c3)c2C)s1` was tested, and the survival was inactive: 104%.
With `CCCC(=O)c1ccc(OC(=O)c2c(-c3ccccc3Cl)noc2C)cc1` the survival was inactive: 124%.
`COc1ccc(-c2ccc(CCC(=O)O)n2CC(=O)Nc2cccc(C(F)(F)F)c2)cc1` was tested, and the survival was inactive: 85%.
`COc1ccc(-c2cn3c(n2)sc2cc(C(=O)Nc4cc(OC)cc(OC)c4)ccc23)cc1` was tested, and the survival was inactive: 98%.
In the case of `CCc1ccc(-n2c(=O)c3cccnc3n2CC(=O)Nc2ccccc2C(F)(F)F)cc1`, the survival is reported as inactive: 68%.
`N#Cc1c(NC(=O)CS(=O)(=O)c2ccc(Cl)cc2)sc2c1CCCCC2` was tested, and the survival was inactive: 72%.
For `Cc1ccc2nsnc2c1S(=O)(=O)N1CCCC1`, the survival was inactive: 128%.
`CCOC(=O)c1c(NC(C)=O)c2c3c(sc2n1Cc1nc(-c2cccc(C)c2)oc1C)CCCC3` was tested, and the survival was inactive: 89%.
With `CCOc1ccccc1NC(=O)NC1CC2CCCC(C1)N2Cc1nnnn1CCc1ccccc1` (stereo not drawn) the survival was inactive: 91%.
`COc1ccc(N2CCN(C(=O)c3ccc4c(Cl)c5c(nc4c3)CCCC5)CC2)cc1` was tested, and the survival was inactive: 127%.
In the case of `COc1ccccc1C(=O)NC1=NC(c2ccc(Br)cc2)CC(=O)N1` (stereo not drawn), the survival is reported as inactive: 50%.
`COc1ccccc1-c1nc(CNC(=O)Nc2ccccc2)c(C)o1` was tested, and the survival was inactive: 68%.
With `CCOc1ccc(-c2cc(C(=O)NCCc3ccc(Cl)cc3)c3ccccc3n2)cc1` the survival was inactive: 88%.
`COc1cc(-c2cc(OC)c3c(C)oc(C)c3c(=O)c2)ccc1OC(=O)c1ccccc1F` was tested, and the survival was inactive: 77%.
`O=[N+]([O-])c1cc(-c2nc(-c3ccccc3)no2)ccc1NC1CCCC1` was tested, and the survival was inactive: 107%.
For `COc1ccc(CN2C(=O)N(c3ccc(C)cc3)C(=O)C2CC(=O)Nc2ccccc2)cc1OC` (stereo not drawn), the survival was inactive: 87%.
For `CCCc1cc(C(=O)Nc2c(C)nn(Cc3ccc(Cl)c(Cl)c3)c2C)no1`, the survival was inactive: 62%.
With `CS(=O)(=O)Nc1ccc(-c2nc3ccccc3s2)cc1` the survival was inactive: 66%.
With `O=C(CSc1ncc2c(n1)-c1cc(Cl)ccc1N(Cc1ccccc1)S2(=O)=O)NCCc1ccccc1` the survival was inactive: 113%.
For `CCOC(=O)COc1cc(C)c(Cl)cc1C(=O)c1ccn2nc(-c3ccc(OC)cc3)cc2n1`, the survival was inactive: 72%.
`COc1ccc(NC(=O)c2cccn2-c2nnc(N3CCCCC3)s2)c(OC)c1` was tested, and the survival was inactive: 73%.
For `CC(NS(=O)(=O)c1ccc(Br)cc1)C(=O)NCc1ccco1` (stereo not drawn), the survival was inactive: 113%.
In the case of `CCc1nn(CC(=O)NCCc2ccc(OC)c(OC)c2)c(=O)c2cc3occc3n12`, the survival is reported as inactive: 147%.
`O=c1[nH]nc(SC(F)(F)C(F)(F)C(F)(F)F)c(=O)[nH]1` was tested, and the survival was inactive: 68%.
With `Cc1ccccc1N1C(S)=C(C#N)C(=O)NC1c1ccco1` (stereo not drawn) the survival was inactive: 113%.
With `COc1ccccc1NC(=O)c1ccc(-c2nc(COc3ccc(C)cc3)c(C)o2)cc1` the survival was inactive: 84%.
`Cc1ccc(NC(=O)Nc2c(C)n(C)n(-c3ccccc3)c2=O)c(Cl)c1` was tested, and the survival was inactive: 76%.
In the case of `CCOc1ccc(NC(=O)C2=C(C)C(=O)OC23CCC(C)CC3)cc1` (stereo not drawn), the survival is reported as inactive: 71%.
`CCOC(=O)c1ccc(NC(=O)CSc2nc(-c3ccc(F)cc3)cc(C(F)(F)F)c2C#N)cc1` was tested, and the survival was inactive: 90%.
`COc1ccc(C2CC(=O)c3cc(-c4nc(-c5ccc(C)cc5)cs4)c(=O)[nH]c3C2)cc1` (stereo not drawn) was tested, and the survival was inactive: 82%.
`CC(C)c1ccc(NC(=O)Cc2ccc(NC(=O)N3CCCCc4ccccc43)cc2)cc1` was tested, and the survival was inactive: 110%.
For `CCC1CN(C(=O)NCc2ccc(F)cc2)c2cc(Cl)ccc2O1` (stereo not drawn), the survival was inactive: 72%.
With `CCOc1ccc2[nH]c(=O)c(CN(CC3COCCO3)C(=O)C3CC3)cc2c1` (stereo not drawn) the survival was inactive: 101%.
For `CCOc1cccc(CNC(=O)c2ccc(N3CCCC3)c(NC(=O)Nc3ccccc3CC)c2)c1`, the survival was inactive: 78%.
In the case of `CCOC(=O)c1c(C)[nH]c(C)c1S(=O)(=O)N(C)CC(=O)NCc1ccc(C)cc1`, the survival is reported as inactive: 67%.
For `COc1ccc(NC(=O)C2CCCN(S(=O)(=O)c3c(C)[nH]c(=O)[nH]c3=O)C2)cc1` (stereo not drawn), the survival was inactive: 133%.
`CCCCOc1ccc(CNC(=O)CN2C(=O)CCn3nc(-c4cn(C)c5ccccc45)cc32)cc1` was tested, and the survival was inactive: 73%.
With `CCOc1ccc2nc(NCCCNC(=O)c3cc(OC)c(OC)c(OC)c3)c(C#N)cc2c1` the survival was inactive: 99%.
In the case of `COc1ccc(S(=O)(=O)NCCc2csc(-c3cccc(F)c3)n2)cc1OC`, the survival is reported as inactive: 89%.
`CCn1cc(S(=O)(=O)c2ccc(OC)cc2)c(=O)c2cc(F)c(N3CCCCCC3)cc21` was tested, and the survival was inactive: 82%.
In the case of `COc1cc(OC)c(NC(=O)CC(C)S(=O)(=O)c2ccc3c(c2)NC(=O)CO3)cc1Cl` (stereo not drawn), the survival is reported as inactive: 67%.
For `COc1ccc(-c2nn(-c3ccc(C)c(Cl)c3)c3c2cnc2cc(OC)c(OC)cc23)cc1`, the survival was inactive: 128%.
For `CCOc1ccc(/C=C/C(=O)Nc2sc3c(c2C(=O)OC)CCCC3)cc1`, the survival was inactive: 112%.
For `CCC(Oc1ccccc1)C(=O)Nc1cc(-c2ccccc2F)nn1-c1ccccc1` (stereo not drawn), the survival was inactive: 127%.
For `CCN1CCN(c2nc3c(S(=O)(=O)c4ccc(C)cc4)nnn3c3ccsc23)CC1`, the survival was inactive: 90%.
For `CCN(CC)S(=O)(=O)c1ccc2c(c1)N(CC(=O)NCCc1ccccc1)C(=O)CO2`, the survival was inactive: 77%.
With `CC(C)Cc1nnc(NC(=O)CCCN2C(=O)CCC2=O)s1` the survival was inactive: 111%.
`CCOc1ccc2nc(N3CCCC(C(=O)Nc4ccc(CC)cc4)C3)sc2c1` (stereo not drawn) was tested, and the survival was inactive: 64%.
In the case of `CCc1ccc2oc(-c3cccc(NC(=O)COc4ccccc4Cl)c3)nc2c1`, the survival is reported as inactive: 82%.
In the case of `CCC(CC)C(=O)Nc1nnc(C(C)(C)C)s1`, the survival is reported as inactive: 112%.
`CCN(CC)C(=O)c1ccc2c(c1)N(Cc1ccccc1F)C(=O)c1ccccc1S2=O` (stereo not drawn) was tested, and the survival was inactive: 134%.
For `COc1cc(NC(=O)C(CC(C)C)N2Cc3ccccc3C2=O)cc(OC)c1` (stereo not drawn), the survival was inactive: 120%.
`CCOc1ccc(NC(=O)CSc2nc3ccsc3c(=O)n2CC)cc1` was tested, and the survival was inactive: 72%.
In the case of `CCCCOc1ccc(CNC(=O)c2cnc3sc(N4CCCCCC4)nn3c2=O)cc1`, the survival is reported as inactive: 91%.
For `CCCCNC(=O)CCn1nc(-c2ccc(Cl)cc2)c2ccccc2c1=O`, the survival was inactive: 81%.
For `Cc1cccc(C(=O)n2nc(-c3cccnc3)nc2NCc2ccc(F)cc2)c1`, the survival was inactive: 75%.
For `Cc1c(C(=O)NCc2cccc(F)c2)oc2c1-c1[nH]ncc1CC2`, the survival was inactive: 81%.
In the case of `Cc1ccc2sc(NC(=O)/C=C/C(=O)O)nc2c1`, the survival is reported as inactive: 112%.
With `Cc1ccc(NC(=O)Cn2c(=O)nc(-c3ccccc3)c3ccccc32)cc1` the survival was inactive: 102%.
`Cn1c(=O)[nH]c(=O)c2c1nc(CN1CCN(c3ccccc3)CC1)n2Cc1c(F)cccc1Cl` was tested, and the survival was inactive: 73%.
With `Cc1cccc(NC(=O)c2ccc3[nH]c(C)cc(=O)c3c2)c1` the survival was inactive: 114%.
